Source: the RNAGym collection of RNA variant scans (doi:10.7554/elife.90254)
Read counts are not given, so values of variants with three or more changes are uncertain.

B1: OR4K15 (parent)
chain: GUUAACGGUCAUAGGCCAUGGAAACUAGGAGCACCAUUUCGCUGCCAGUGAAGAAAUGAACAAAGAAAAUCUGGGCCAGGCAGGCAUCAAAAGAAAUAGUCUUGCGCUCAACCAGAAAGUCUGUAAUCAUUUUAAGGGUA

Variants of: B1
Test: self-cleavage, relative activity (ratio to wild type); higher = more cleavage; in vitro, sequencing; the parent is a self-cleaving ribozyme
U26C A60G A69G U72C A110G gave a self-cleavage of 0.15.
U26C A60G A96U A135G showed a self-cleavage of 1.42.
U26C A60G C107U showed a self-cleavage of 0.02.
Variant U26C A60G U72C U103C A110U U132C G138A has a self-cleavage of 0.1.
With U26C A62G G75A A92G the self-cleavage was 0.18.
U26C A63G A96G gave a self-cleavage of 2.
For U26C A63G A110G A126G U131C U139C, the self-cleavage was 0.1.
Variant U26C A64G A98U A117U has a self-cleavage of 1.24.
Work on U26C A66G A67G U102A yielded a self-cleavage of 0.21.
With U26C A66G A96U U108C U127C the self-cleavage was 0.01.
Work on U26C A68U A98C yielded a self-cleavage of 1.56.
Variant U26C A69U A118U U132C has a self-cleavage of 0.94.
In the case of U26C A78G U124C, the self-cleavage is reported as 0.17.
In the case of U26C A82U A129G, the self-cleavage is reported as 0.09.
For U26C A89G A94G U108C, the self-cleavage was 0.03.
In the case of U26C A91G A98G, the self-cleavage is reported as 0.62.
With U26C A92G C128A the self-cleavage was 1.42.
Variant U26C A94G A118G has a self-cleavage of 1.81.
For U26C A95G U124C, the self-cleavage was 1.23.
U26C A117G U120C gave a self-cleavage of 0.48.
With U26C C40A A54G the self-cleavage was 1.94.
Work on U26C G29U A82U U100C yielded a self-cleavage of 0.61.
In the case of U26C G41A A67G A95G, the self-cleavage is reported as 1.73.
Variant U26C G74A A111G has a self-cleavage of 0.03.
In the case of U26C G93A U131C A135G, the self-cleavage is reported as 0.6.
With U26C U37C A64G A66G U102C A117G the self-cleavage was 1.26.
In the case of U26C U37C G44A, the self-cleavage is reported as 1.74.
Work on U26C U37C U108C U133A yielded a self-cleavage of 0.02.
In the case of U26C U38A A62G U87C A117U U122C, the self-cleavage is reported as 0.29.
For U26C U39A A82G A111G, the self-cleavage was 0.05.
For U26C U39A A91G U120C, the self-cleavage was 0.59.
Variant U26C U39C A55U U57C has a self-cleavage of 1.5.
For U26C U43A A51G U102C, the self-cleavage was 1.74.
For U26C U43A A110G A134G, the self-cleavage was 0.15.
Variant U26C U43C U102C has a self-cleavage of 1.11.
For U26C U49C A92C, the self-cleavage was 1.55.
Work on U26C U49G A59G A62G U139C yielded a self-cleavage of 0.9.
Variant U26C U70C U87C A98U A111G has a self-cleavage of 0.01.
Variant U26C U70C U102C A110G has a self-cleavage of 0.06.
U26C U70G A91G gave a self-cleavage of 0.37.
Variant U26C U72G A90G A111U has a self-cleavage of 0.03.
For U26C U102C A129U, the self-cleavage was 1.09.
For U26C U102C U132C, the self-cleavage was 2.2.
U26C U120C U122A showed a self-cleavage of 1.2.
With U26C U120C U127C the self-cleavage was 0.48.
With U26G A51U A60G A111G the self-cleavage was 0.01.
For U26G A62G A90G, the self-cleavage was 1.27.
For A27G A30G A47U A91G, the self-cleavage was 0.89.
With A27G A30G A91G the self-cleavage was 0.81.
For A27G A33C A52G, the self-cleavage was 0.47.
Variant A27G A33G A86G A125G has a self-cleavage of 0.56.
For A27G A33G A89G A118G, the self-cleavage was 0.33.
A27G A47G A52G gave a self-cleavage of 0.77.
For A27G A51U A92G A98G U133G, the self-cleavage was 0.87.
Variant A27G A52G A56C A78G has a self-cleavage of 0.15.
In the case of A27G A52G C61U C107U A118G U122C, the self-cleavage is reported as 0.01.
Variant A27G A52U A116G U131C has a self-cleavage of 0.56.
Variant A27G A52U U87C A118G U122C has a self-cleavage of 0.82.
For A27G A54G A55G U87A A111G U130C, the self-cleavage was 0.06.
With A27G A54G A60C A64C the self-cleavage was 0.9.
Work on A27G A54G U87C U103C yielded a self-cleavage of 0.77.
For A27G A55U A91G A126G U139C, the self-cleavage was 0.47.
Work on A27G A56G A67G A69U A129G yielded a self-cleavage of 1.11.
Work on A27G A56G G75C yielded a self-cleavage of 0.14.
Work on A27G A60G A62U yielded a self-cleavage of 1.44.
A27G A60G A64G gave a self-cleavage of 0.57.
Work on A27G A60G A64U yielded a self-cleavage of 0.96.
Variant A27G A60G A82U A111G A135G has a self-cleavage of 0.
Variant A27G A60G A82U A118G has a self-cleavage of 0.09.
For A27G A60G A117U U130C, the self-cleavage was 0.82.
With A27G A60U A78G A95U U97C A111G the self-cleavage was 0.01.
A27G A60U U70C showed a self-cleavage of 0.7.
A27G A62G A140U showed a self-cleavage of 1.02.
With A27G A62U A95G A116C U124C the self-cleavage was 0.06.
For A27G A64G A66G U122C, the self-cleavage was 1.44.
A27G A64G A67G showed a self-cleavage of 1.18.
For A27G A64G A110G A129C U131C, the self-cleavage was 0.03.
Work on A27G A64G G65A yielded a self-cleavage of 0.73.
For A27G A66G A90G, the self-cleavage was 1.91.
In the case of A27G A67G A126G, the self-cleavage is reported as 0.98.
Variant A27G A67G G80A U102C has a self-cleavage of 0.69.
Variant A27G A68G A116G U131C has a self-cleavage of 0.91.
A27G A68G U70C A90G showed a self-cleavage of 0.85.
A27G A68U A82G U127C U130C gave a self-cleavage of 0.15.
In the case of A27G A69G A116G, the self-cleavage is reported as 0.5.
For A27G A78G A94G, the self-cleavage was 0.32.
Work on A27G A78G U139C yielded a self-cleavage of 0.28.
A27G A82C A92G gave a self-cleavage of 0.16.
For A27G A91C U102C, the self-cleavage was 1.09.
A27G A94G A125G showed a self-cleavage of 0.72.
For A27G A95G A98G, the self-cleavage was 1.56.
With A27G A95G U103C U131C the self-cleavage was 1.24.
A27G A96G A134U gave a self-cleavage of 0.52.
In the case of A27G A110G A114G A116G U139C, the self-cleavage is reported as 0.02.
In the case of A27G A111U A118G, the self-cleavage is reported as 0.07.
In the case of A27G C32U U39A A52G A56G A111G A125U, the self-cleavage is reported as 0.05.
For A27G C34U U70C U108C A117G, the self-cleavage was 0.
A27G C42U U87C gave a self-cleavage of 0.94.
In the case of A27G C46U A51G, the self-cleavage is reported as 0.6.
For A27G G58A A94G, the self-cleavage was 0.92.
Variant A27G G123A U133A has a self-cleavage of 0.85.
A27G U37C A59G A96G U100C U122C gave a self-cleavage of 1.69.
In the case of A27G U38C A63G A67G U97A, the self-cleavage is reported as 0.5.
A27G U39C A56G A66G U127C U139A gave a self-cleavage of 0.34.
Variant A27G U39C A68G has a self-cleavage of 1.15.
Work on A27G U43A A89G yielded a self-cleavage of 0.53.
A27G U43A A111G gave a self-cleavage of 0.
A27G U43G A96G showed a self-cleavage of 1.39.
Variant A27G U49C A66G U127C U133C has a self-cleavage of 0.37.
In the case of A27G U49C A69G A92G, the self-cleavage is reported as 1.39.
A27G U57C A59U A134G showed a self-cleavage of 1.18.
For A27G U57C A67G C76A, the self-cleavage was 0.07.
For A27G U57C A94G A110G U131C, the self-cleavage was 0.11.
Variant A27G U57C U72C A96U has a self-cleavage of 0.24.
A27G U70A A92G gave a self-cleavage of 0.66.
Work on A27G U70A U130C yielded a self-cleavage of 0.48.
A27G U72A U100C showed a self-cleavage of 0.55.
Variant A27G U87C A117G A126G U127A U133C U139C has a self-cleavage of 0.
With A27G U100C A135U the self-cleavage was 1.62.
In the case of A27G U100C U108C U132C, the self-cleavage is reported as 0.01.
Variant A27G U108C A110G has a self-cleavage of 0.02.
A27U A30G G41U A92G C105U showed a self-cleavage of 0.45.
A27U A33G A54G U57A showed a self-cleavage of 1.26.
A27U A33G A66C A86U A114U gave a self-cleavage of 0.12.
Work on A27U A33G A95G yielded a self-cleavage of 1.58.
For A27U A33U U39C A62U U103C, the self-cleavage was 0.73.
A27U A51G A91G A96G gave a self-cleavage of 0.9.
In the case of A27U A55G A60G A95G U108A U132C, the self-cleavage is reported as 0.01.
With A27U A56G A117G the self-cleavage was 2.05.
In the case of A27U A59U A82G, the self-cleavage is reported as 0.53.
In the case of A27U A62G A89U U132C, the self-cleavage is reported as 2.15.
In the case of A27U A66G U87C, the self-cleavage is reported as 1.68.
With A27U A66U U72C the self-cleavage was 0.35.
For A27U A78G A96C C113U, the self-cleavage was 0.01.
For A27U A86C U131C, the self-cleavage was 0.48.
With A27U A86U U127C the self-cleavage was 1.35.
A27U A89U U132C gave a self-cleavage of 1.47.
A27U A95G A117G showed a self-cleavage of 1.85.
A27U A96G A116G showed a self-cleavage of 0.53.
Work on A27U A114C A117U A135U yielded a self-cleavage of 0.01.
For A27U C35A U102C A125U, the self-cleavage was 1.9.
For A27U C40G A54G U57C A67G, the self-cleavage was 1.21.
A27U C113A U122C showed a self-cleavage of 0.01.
A27U G50A A52G A56G A66G C109A gave a self-cleavage of 0.38.
In the case of A27U U39C A125G U133C, the self-cleavage is reported as 1.38.
Variant A27U U39C U49C U87C U97C has a self-cleavage of 0.4.
In the case of A27U U43A U122C, the self-cleavage is reported as 1.
In the case of A27U U87A A126G, the self-cleavage is reported as 1.2.
Work on A27U U124C U131C yielded a self-cleavage of 0.69.
G28A A30G U97C U102C U131C showed a self-cleavage of 1.91.
Work on G28A A33U U100C U103C A111G A114G A140G yielded a self-cleavage of 0.01.
Variant G28A A54G A55U A59G A90U A95G has a self-cleavage of 1.96.
For G28A A67G A129G, the self-cleavage was 1.08.
For G28A A68U A91G A98G, the self-cleavage was 0.42.
In the case of G28A A86G U127C, the self-cleavage is reported as 0.86.
With G28A U43C A51G A68C the self-cleavage was 0.91.
Work on G28A U49C U70C A78C yielded a self-cleavage of 0.26.
With G28C A47G A55G A63G U130C U131C the self-cleavage was 0.88.
G28C A54U U102A showed a self-cleavage of 1.14.
G28U A67G U122C gave a self-cleavage of 1.32.
Variant G28U A82G U103A has a self-cleavage of 0.09.
With G28U C40A U102C U108A the self-cleavage was 0.01.
For G28U U38C A60G A92G, the self-cleavage was 0.09.
With G28U U102C U122C the self-cleavage was 2.3.
G29A A36U A90G showed a self-cleavage of 0.86.
Work on G29A A62G U127C yielded a self-cleavage of 0.97.
In the case of G29A A66G U131C U132C, the self-cleavage is reported as 0.99.
